# Results from a collection of fitness landscapes (doi:10.1038/s41467-024-54723-y).
# The full ranking holds about 18,000 sequences; the median of “TetR repression strength (sort-seq, GFP reporter)” is about 0.23, and the highest 2% start at about 0.68. This is one part of the list.
# Target: TetR (class B, Tn10) (UniProt P04483)
# Assay: TetR repression strength (sort-seq, GFP reporter) (relative to tetO2 = 1); higher = stronger repression
# Details: E. coli
# Summary of the method: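 In LB with 50 µg/mL chloramphenicol, E. coli SIG10-MAX holding a low-copy library with eight randomized operator positions between a constitutive promoter and sfGFP, plus constitutive TetR, grew for 5 h at 37 °C. FACS then sorted 10^6 cells into 13 fluorescence bins for Illumina sequencing of each bin. Repression strength equals the top bin index plus one less the read-weighted mean bin, normalized to the unaltered operator. Values from three independent transformations were averaged when reads were ≥30 in every replicate and the CV was ≤0.5.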
# UniProt P04483, sequence (P04483 whole entry): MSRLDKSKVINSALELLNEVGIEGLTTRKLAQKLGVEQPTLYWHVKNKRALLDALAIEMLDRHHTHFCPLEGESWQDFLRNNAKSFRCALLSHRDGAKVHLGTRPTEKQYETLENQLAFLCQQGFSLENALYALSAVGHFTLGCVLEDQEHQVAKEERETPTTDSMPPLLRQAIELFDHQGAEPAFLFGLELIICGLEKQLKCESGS
row,Sequence,TetR repression strength
1,TCCCGCATAGTCTAGGAGA,0.308
2,TCCCGTCGAGTCCTCGAGA,0.0322
3,TCCCCCTCAGTATAGGAGA,0.214
4,TCCCTAACAGTCTCCGAGA,0.331
5,TCCCCGTAAGTTGGCGAGA,0.00451
6,TCCCTTCTAGTCGTTGAGA,0.416
7,TCCCGTATAGTTGATGAGA,0.103
8,TCCCGTACAGTTGTCGAGA,0.342
9,TCCCCTTAAGTAGCGGAGA,0.138
10,TCCCATCAAGTTCTGGAGA,0.363
11,TCCCTTGCAGTGTTGGAGA,0.258
12,TCCCACGGAGTTACCGAGA,0.302
13,TCCCCTGAAGTAGGTGAGA,0.158
14,TCCCTGATAGTTGCGGAGA,0.06
15,TCCCGATAAGTGTGGGAGA,0.0255
16,TCCCAGCGAGTATAGGAGA,0.333
17,TCCCATGCAGTACGTGAGA,0.259
18,TCCCAGGAAGTTGGGGAGA,0.233
19,TCCCGCGAAGTAGCAGAGA,0.114
20,TCCCTTCAAGTGCCGGAGA,1.13
21,TCCCTTTAAGTACCTGAGA,0.523
22,TCCCGCGTAGTAAAGGAGA,0.304

row,Sequence,TetR repression strength
1,TCCCTAAGAGTAAAAGAGA,0.839
2,TCCCCGACAGTGATGGAGA,0.108
3,TCCCATCCAGTTGAGGAGA,0.266
4,TCCCGTGCAGTAATCGAGA,0.749
5,TCCCGCACAGTAAGCGAGA,0.108
6,TCCCGCGAAGTCGCGGAGA,0.138
7,TCCCCAGAAGTACAGGAGA,0.134
8,TCCCCTTGAGTGCGAGAGA,0.282
9,TCCCGGGGAGTCTGTGAGA,0.275
10,TCCCAAGGAGTGAGGGAGA,0.12
11,TCCCATCTAGTGGGTGAGA,0.262
12,TCCCGGTAAGTGAAAGAGA,0.684
13,TCCCACGGAGTCAATGAGA,0.309
14,TCCCCACAAGTGTCAGAGA,0.352
15,TCCCGGCCAGTTGCGGAGA,0.268
16,TCCCGCCTAGTAGAGGAGA,0.25
17,TCCCGTGTAGTAAGGGAGA,0.307
18,TCCCTTCTAGTGTTGGAGA,0.397
19,TCCCGAGGAGTTGGAGAGA,0.14
20,TCCCACGCAGTGGTAGAGA,0.153
21,TCCCTCTCAGTTACTGAGA,0.703
22,TCCCGGCGAGTTACGGAGA,0.399

row,Sequence,TetR repression strength
1,TCCCTGAAAGTTGGGGAGA,0.0848
2,TCCCCGTCAGTCGGCGAGA,0.317
3,TCCCAGTCAGTATCGGAGA,0.078
4,TCCCTGCCAGTTTGAGAGA,0.129
5,TCCCGATCAGTACGGGAGA,0.0578
6,TCCCCAGCAGTTTCCGAGA,0.275
7,TCCCGCGCAGTATCTGAGA,0.195
8,TCCCAATTAGTCTGTGAGA,0.245
9,TCCCGCGAAGTGTACGAGA,0.183
10,TCCCGGACAGTCCGTGAGA,0.196
11,TCCCGGTGAGTTGCGGAGA,0.138
12,TCCCACAGAGTGCTAGAGA,0.218
13,TCCCACGGAGTCCGGGAGA,0.0173
14,TCCCGATGAGTGTTCGAGA,0.28
15,TCCCCTGAAGTCGACGAGA,0.179
16,TCCCCGTCAGTGATAGAGA,0.35
17,TCCCTTCTAGTGGGTGAGA,0.431
18,TCCCCCAGAGTACAAGAGA,0.378
19,TCCCCGTTAGTTAGGGAGA,0.144
20,TCCCCGTAAGTTCCTGAGA,0.231
21,TCCCTATGAGTAAAAGAGA,0.24
